This passage reports cytotoxicity call and growth inhibition call results from the antibiotic and cytotoxicity screens of Wong et al. (2023).

The list shows a part of the results.

One assay deals with HSkMC. As to the kind of experiment: cytotoxicity call (relative viability < 0.9). To be noted: 10 µM.
In a further assay the test system is S. aureus RN4220. As to the kind of experiment: growth inhibition call (relative growth <= 0.2). To be noted: 50 µM.

Take `C[C@H]1CN([C@@H](C)CO)C(=O)CCCn2nncc2CO[C@@H]1CN(C)C(=O)Nc1cccc2ccccc12`: in the assay with HSkMC, the cytotoxicity call was “inactive”. Further, the growth inhibition call in the assay with S. aureus RN4220 is “inactive”.

As for `COc1ccc(S(=O)(=O)N(C)C[C@H]2Oc3c(NS(=O)(=O)c4cn(C)cn4)cccc3C(=O)N([C@H](C)CO)C[C@@H]2C)cc1`, the cytotoxicity call with HSkMC is “inactive”. Further, in the assay with S. aureus RN4220, the growth inhibition call is “inactive”.

Regarding `Cc1ccc(OC(=O)N(C)C[C@H]2OCc3ccccc3-c3ccccc3C(=O)N([C@H](C)CO)C[C@H]2C)cc1`, the cytotoxicity call in the assay with HSkMC is “inactive”. For the same compound, the growth inhibition call in the assay on S. aureus RN4220 is “inactive”.

On to `C[C@@H]1CCCCO[C@@H](CN(C)S(=O)(=O)c2ccc(Cl)cc2)[C@@H](C)CN([C@@H](C)CO)C(=O)c2cc(NS(=O)(=O)c3cccs3)ccc2O1`, for which, in the assay with HSkMC, the cytotoxicity call is “inactive”. For the same compound, the growth inhibition call with S. aureus RN4220 is “inactive”.

For the compound `C[C@H]1CCCCO[C@@H](CN(C)Cc2ccncc2)[C@@H](C)CN([C@@H](C)CO)C(=O)c2cc(NC(=O)CCC(F)(F)F)ccc2O1`, the cytotoxicity call in the assay with HSkMC is “inactive”. Also, the growth inhibition call in the assay with S. aureus RN4220 was “inactive”.

On to `COc1ccc(CN(C)C[C@@H]2Oc3ccc(NS(=O)(=O)c4cn(C)cn4)cc3C(=O)N([C@H](C)CO)C[C@@H]2C)cc1`, for which the cytotoxicity call with HSkMC is “inactive”. Moreover, the growth inhibition call in the assay with S. aureus RN4220 was “inactive”.

As to `C[C@@H]1CN([C@H](C)CO)C(=O)Cc2cc(NC(=O)C3CCCCC3)ccc2O[C@@H]1CN(C)Cc1ccc(Cl)c(Cl)c1`, in the assay with HSkMC, the cytotoxicity call was “active”. Besides, the growth inhibition call with S. aureus RN4220 was “inactive”.

`COc1ccccc1C(=O)Nc1ccc2c(c1)C(=O)N(C)[C@@H]1CC[C@H](CC(=O)NCCc3ccncc3)O[C@@H]1CO2`: in the assay with HSkMC, the cytotoxicity call was “inactive”. In the assay on S. aureus RN4220, the growth inhibition call is “inactive”.

On to `Cc1noc(C)c1S(=O)(=O)Nc1ccc2c(c1)C(=O)N([C@H](C)CO)C[C@H](C)[C@@H](CN(C)Cc1ccccc1)OCCCC[C@@H](C)O2`, for which the cytotoxicity call in the assay with HSkMC is “inactive”. The growth inhibition call in the assay on S. aureus RN4220 was “inactive”.

Consider `C[C@@H]1CN([C@H](C)CO)C(=O)c2cc(NS(=O)(=O)c3ccccc3)ccc2O[C@@H](C)CCCCO[C@@H]1CN(C)S(C)(=O)=O`, for which the cytotoxicity call in the assay with HSkMC was “inactive”. Besides, the growth inhibition call in the assay on S. aureus RN4220 was “inactive”.

Regarding `C[C@@H]1CN([C@@H](C)CO)C(=O)Cc2cc(NS(C)(=O)=O)ccc2O[C@H]1CN(C)C(=O)Nc1ccc(F)cc1`, the cytotoxicity call in the assay with HSkMC is “inactive”. In the assay with S. aureus RN4220, the growth inhibition call was “inactive”.

For the compound `C[C@@H]1CN([C@@H](C)CO)C(=O)c2cc(NC(=O)Nc3cccc4ccccc34)ccc2O[C@@H](C)CCCCO[C@@H]1CN(C)Cc1ccncc1`, in the assay on HSkMC, the cytotoxicity call is “inactive”. For the same compound, in the assay on S. aureus RN4220, the growth inhibition call is “inactive”.

`Cc1noc(C)c1NC(=O)N(C)C[C@H]1Oc2ccc(NC(=O)Nc3ccc(C(F)(F)F)cc3)cc2CC(=O)N([C@H](C)CO)C[C@@H]1C`: the cytotoxicity call in the assay on HSkMC was “inactive”. Further, the growth inhibition call in the assay on S. aureus RN4220 was “inactive”.

`C[C@@H]1CN([C@@H](C)CO)C(=O)Cc2cc(NS(=O)(=O)c3ccc(Cl)cc3)ccc2O[C@H]1CN(C)Cc1ccc(C(F)(F)F)cc1`: in the assay with HSkMC, the cytotoxicity call is “inactive”. Besides, the growth inhibition call with S. aureus RN4220 is “inactive”.

With `Cc1ccc(S(=O)(=O)N(C)C[C@H]2OCCCC[C@@H](C)Oc3ccc(NC(=O)Nc4ccc(F)cc4)cc3C(=O)N([C@@H](C)CO)C[C@@H]2C)cc1`, the cytotoxicity call in the assay with HSkMC was “active”. Further, the growth inhibition call in the assay with S. aureus RN4220 was “inactive”.

For the compound `[N-]=[N+]=Nc1ccccc1C[C@@]1(C(=O)NCc2ccccc2)N=C(c2ccc(OCCCO)cc2)O[C@@H]1c1ccccc1`, the cytotoxicity call in the assay with HSkMC was “inactive”. Further, the growth inhibition call in the assay on S. aureus RN4220 was “inactive”.

`Cc1ccc(S(=O)(=O)Nc2cccc3c2O[C@H](CN(C)Cc2ccc(Oc4ccccc4)cc2)[C@@H](C)CN([C@@H](C)CO)C3=O)cc1`: the cytotoxicity call in the assay on HSkMC is “inactive”. For the same compound, in the assay with S. aureus RN4220, the growth inhibition call is “inactive”.

Turning to `CC(=O)n1cc([C@@H]2C=C(C(=O)N3CCN(Cc4ccc5c(c4)OCO5)CC3)O[C@H](OCc3ccc(COC(=O)NCCCCCC(=O)NO)cc3)C2)c2ccccc21`, in the assay on HSkMC, the cytotoxicity call was “inactive”. The growth inhibition call in the assay on S. aureus RN4220 was “inactive”.

Take `COc1cccc(S(=O)(=O)N(C)C[C@H]2Oc3ncc(C#CCC(C)C)cc3C(=O)N([C@@H](C)CO)C[C@@H]2C)c1`: the cytotoxicity call in the assay on HSkMC was “inactive”. Further, in the assay on S. aureus RN4220, the growth inhibition call is “inactive”.

As to `CC(C)NC(=O)Nc1ccc2c(c1)C(=O)N([C@H](C)CO)C[C@H](C)[C@H](CN(C)Cc1ccc(C(F)(F)F)cc1)OCCCC[C@H](C)O2`, the cytotoxicity call with HSkMC is “inactive”. The growth inhibition call in the assay with S. aureus RN4220 is “inactive”.

In the case of `C/N=C1\S[C@@H](CC(=O)NC(C)C)C(=O)N1C`, the cytotoxicity call in the assay with HSkMC was “inactive”. Further, the growth inhibition call in the assay with S. aureus RN4220 was “inactive”.

As to `C[C@@H]1CN([C@H](C)CO)C(=O)Cc2cc(NC(=O)C3CC3)ccc2O[C@H]1CN(C)C(=O)Nc1ccc2c(c1)OCO2`, in the assay with HSkMC, the cytotoxicity call is “inactive”. Further, the growth inhibition call in the assay on S. aureus RN4220 was “inactive”.

As to `C[C@H](O)C#Cc1ccc2c(c1)O[C@@H](CN(C)C(=O)Nc1ccccc1)[C@@H](C)CN([C@@H](C)CO)S2(=O)=O`, the cytotoxicity call in the assay with HSkMC is “inactive”. In addition, the growth inhibition call in the assay on S. aureus RN4220 is “inactive”.

For `Cc1noc(C)c1S(=O)(=O)Nc1ccc2c(c1)CC(=O)N([C@@H](C)CO)C[C@H](C)[C@H](CN(C)Cc1ccc3c(c1)OCO3)O2`, the cytotoxicity call with HSkMC was “inactive”. The growth inhibition call in the assay with S. aureus RN4220 is “inactive”.

As to `Cc1noc(C)c1S(=O)(=O)N(C)C[C@@H]1Oc2ccc(NS(C)(=O)=O)cc2CC(=O)N([C@H](C)CO)C[C@@H]1C`, the cytotoxicity call in the assay on HSkMC (human skeletal muscle cells) is “inactive”. Besides, in the assay on S. aureus RN4220, the growth inhibition call is “inactive”.

`Cc1cccc(=O)n1CCCCN`: the cytotoxicity call in the assay with HSkMC was “inactive”. In the assay with S. aureus RN4220, the growth inhibition call was “inactive”.

Turning to `C[C@@H]1CN([C@@H](C)CO)C(=O)c2cccc(NS(=O)(=O)c3cccs3)c2O[C@H]1CN(C)S(=O)(=O)c1ccccc1`, in the assay with HSkMC, the cytotoxicity call is “inactive”. Besides, the growth inhibition call with S. aureus RN4220 is “inactive”.

Regarding `C[C@H]1CN([C@@H](C)CO)C(=O)c2cccc(NC(=O)CCCCCC(=O)Nc3ccccc3N)c2O[C@H]1CN(C)CC1CCCCC1`, the cytotoxicity call with HSkMC is “inactive”. Besides, the growth inhibition call in the assay with S. aureus RN4220 is “inactive”.

Consider `CN(CC(=O)NC1CCCC1)S(=O)(=O)c1ccc2c(c1)c(=O)n(C)c(=O)n2C`, for which the cytotoxicity call in the assay with HSkMC was “inactive”. For the same compound, the growth inhibition call in the assay with S. aureus RN4220 is “inactive”.
